# Source: the supplement of paper PMC8728848
# This is one part of the list.
# B1: ASA (Allium sativum) (protein)
# chain: KAHEKERMGRNTPSAKLMSIAAVAAILTILASTCMARNLLTNGEGLYAGQSLNVEPYHFIMQEDCNLVLYDHSTAVWATNTDIPGKKECRAVLQSDGNFVVYDADGRPLWASHSVRGNGNYVLVLQEDGNVVIYGSDIWSTGTYVKAARGPVVVAMNGTVDGGSLIRPVIVNKNHVPVIRKVGTLSRNILRNDEGLYAGQSLDVEPYHFIMHEDCNLVLYDHSTAVWASNTDIPGKKGCKAVLQSDGNFVVYDAEGRSLWASHSVRGNGNYVLVLQEDGNVVIYGSDIWSTDTYRKSARGPVIRKVGTLAGAA
# How the values were obtained:
# Test in all cases: glycan array binding signal (z-score within array); higher = stronger binding
# Conditions in all cases: glycan notation: IUPAC condensed, linker removed
# Fuc(a1-2)Gal = molecular target: Fuc(a1-2)Gal
# Outline: (§1)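 Glycan array binding is given as a within-array Z-score, which can be read as non-binding when negative. The arrays, 3228 of them, came from the Consortium for Functional Glycomics database and were retained only where the protein sequence was available. Z-scores were averaged across arrays of the same protein sequence at different concentrations or buffers and across linkers.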
# Fuc(a1-2)Gal(b1-3)GalNAc = molecular target: Fuc(a1-2)Gal(b1-3)GalNAc
# Outline: as §1
# [1] = molecular target: Fuc(a1-2)Gal(b1-3)GalNAc(b1-3)Gal
# Outline: as §1
# [2] = molecular target: Fuc(a1-2)Gal(b1-3)GalNAc(b1-3)Gal(a1-4)Gal(b1-4)Glc
# Outline: as §1
# [3] = molecular target: Fuc(a1-2)Gal(b1-3)GalNAc(b1-3)Gal(b1-4)Glc
# Outline: as §1
# [4] = molecular target: Fuc(a1-2)Gal(b1-3)GalNAc(b1-4)[Neu5Ac(a2-3)]Gal(b1-4)Glc
# Outline: as §1
# [5] = molecular target: Fuc(a1-2)Gal(b1-3)[Fuc(a1-4)]GlcNAc
# Outline: as §1
# Fuc(a1-2)Gal(b1-4)Glc = molecular target: Fuc(a1-2)Gal(b1-4)Glc
# Outline: as §1
# Fuc(a1-2)Gal(b1-4)GlcNAc = molecular target: Fuc(a1-2)Gal(b1-4)GlcNAc
# Outline: as §1
# [6] = molecular target: Fuc(a1-2)Gal(b1-4)GlcNAc(b1-3)Gal(b1-4)GlcNAc
# Outline: as §1
# [7] = molecular target: Fuc(a1-2)Gal(b1-4)GlcNAc(b1-3)Gal(b1-4)GlcNAc(b1-3)Gal(b1-4)GlcNAc
# Outline: as §1
# [8] = molecular target: Fuc(a1-2)Gal(b1-4)[Fuc(a1-3)]GalNAc(b1-3)Gal(b1-4)[Fuc(a1-3)]GlcNAc
# Outline: as §1
# [9] = molecular target: Fuc(a1-2)Gal(b1-4)[Fuc(a1-3)]GalNAc(b1-3)Gal(b1-4)[Fuc(a1-3)]GlcNAc(b1-3)Gal(b1-4)[Fuc(a1-3)]GalNAc
# Outline: as §1
# [10] = molecular target: Fuc(a1-2)Gal(b1-4)[Fuc(a1-3)]GlcNAc
# Outline: as §1
# Fuc(a1-2)GlcNAc = molecular target: Fuc(a1-2)GlcNAc
# Outline: as §1
# Fuc(a1-2)[Gal(a1-3)]Gal = molecular target: Fuc(a1-2)[Gal(a1-3)]Gal
# Outline: as §1
# [11] = molecular target: Fuc(a1-2)[Gal(a1-3)]Gal(b1-3)GlcNAc
# Outline: as §1
# [12] = molecular target: Fuc(a1-2)[Gal(a1-3)]Gal(b1-4)Glc
# Outline: as §1
# [13] = molecular target: Fuc(a1-2)[Gal(a1-3)]Gal(b1-4)GlcNAc
# Outline: as §1
# [14] = molecular target: Fuc(a1-2)[Gal(a1-3)]Gal(b1-4)[Fuc(a1-3)]GlcNAc
# Outline: as §1
# [15] = molecular target: Fuc(a1-2)[Gal(a1-4)]Gal(b1-4)GalNAc
# Outline: as §1
# [16] = molecular target: Fuc(a1-2)[GalNAc(a1-3)]Gal
# Outline: as §1
# [17] = molecular target: Fuc(a1-2)[GalNAc(a1-3)]Gal(b1-3)GlcNAc
# Outline: as §1
# [18] = molecular target: Fuc(a1-2)[GalNAc(a1-3)]Gal(b1-4)Glc
# Outline: as §1
# [19] = molecular target: Fuc(a1-2)[GalNAc(a1-3)]Gal(b1-4)GlcNAc
# Outline: as §1
# [20] = molecular target: Fuc(a1-2)[GalNAc(a1-3)]Gal(b1-4)[Fuc(a1-3)]GlcNAc
# Outline: as §1
# [21] = molecular target: Fuc(a1-2)[GalNAc(a1-4)]Gal(b1-4)GlcNAc
# Outline: as §1
# Fuc(a1-3)GlcNAc = molecular target: Fuc(a1-3)GlcNAc
# Outline: as §1
# [22] = molecular target: Fuc(a1-3)[Gal(b1-4)]GlcNAc
# Outline: as §1
# [23] = molecular target: Fuc(a1-3)[Gal(b1-4)]GlcNAc(b1-4)Gal(b1-4)[Fuc(a1-3)]GlcNAc
# Outline: as §1
# [24] = molecular target: Fuc(a1-3)[Gal(b1-4)]GlcNAc(b1-4)Gal(b1-4)[Fuc(a1-3)]GlcNAc(b1-4)Gal(b1-4)[Fuc(a1-3)]GlcNAc
# Outline: as §1
# [25] = molecular target: Fuc(a1-3)[Gal3S(b1-4)]GlcNAc
# Outline: as §1
# [26] = molecular target: Fuc(a1-3)[GalNAc(b1-4)]Gal(b1-4)GlcNAc
# Outline: as §1
# Fuc(a1-4)GlcNAc = molecular target: Fuc(a1-4)GlcNAc
# Outline: as §1
# Fuc(b1-3)GlcNAc = molecular target: Fuc(b1-3)GlcNAc
# Outline: as §1
# Gal(a1-2)Gal = molecular target: Gal(a1-2)Gal
# Outline: as §1
# Gal(a1-3)Gal = molecular target: Gal(a1-3)Gal
# Outline: as §1
binder,measurement,setting,value
B1,glycan array binding signal (z-score),Fuc(a1-2)Gal,-0.156
same,glycan array binding signal (z-score),Fuc(a1-2)Gal(b1-3)GalNAc,-0.144
same,glycan array binding signal (z-score),[1],-0.217
same,glycan array binding signal (z-score),[2],0.004
same,glycan array binding signal (z-score),[3],-0.228
same,glycan array binding signal (z-score),[4],0.262
same,glycan array binding signal (z-score),[5],-0.233
same,glycan array binding signal (z-score),Fuc(a1-2)Gal(b1-4)Glc,-0.213
same,glycan array binding signal (z-score),Fuc(a1-2)Gal(b1-4)GlcNAc,-0.221
same,glycan array binding signal (z-score),[6],-0.217
same,glycan array binding signal (z-score),[7],-0.197
same,glycan array binding signal (z-score),[8],-0.222
same,glycan array binding signal (z-score),[9],-0.081
same,glycan array binding signal (z-score),[10],-0.206
same,glycan array binding signal (z-score),Fuc(a1-2)GlcNAc,-0.226
same,glycan array binding signal (z-score),Fuc(a1-2)[Gal(a1-3)]Gal,-0.22
same,glycan array binding signal (z-score),[11],-0.192
same,glycan array binding signal (z-score),[12],-0.206
same,glycan array binding signal (z-score),[13],-0.16
same,glycan array binding signal (z-score),[14],-0.214
same,glycan array binding signal (z-score),[15],-0.217
same,glycan array binding signal (z-score),[16],-0.223
same,glycan array binding signal (z-score),[17],-0.225
same,glycan array binding signal (z-score),[18],-0.225
same,glycan array binding signal (z-score),[19],-0.217
same,glycan array binding signal (z-score),[20],-0.206
same,glycan array binding signal (z-score),[21],-0.209
same,glycan array binding signal (z-score),Fuc(a1-3)GlcNAc,-0.225
same,glycan array binding signal (z-score),[22],-0.222
same,glycan array binding signal (z-score),[23],-0.185
same,glycan array binding signal (z-score),[24],-0.229
same,glycan array binding signal (z-score),[25],-0.223
same,glycan array binding signal (z-score),[26],-0.222
same,glycan array binding signal (z-score),Fuc(a1-4)GlcNAc,-0.238
same,glycan array binding signal (z-score),Fuc(b1-3)GlcNAc,-0.219
same,glycan array binding signal (z-score),Gal(a1-2)Gal,-0.229
same,glycan array binding signal (z-score),Gal(a1-3)Gal,-0.231
